# Results published in the supplement of paper PMC8728848.
# Some of the results follow.
# B1: LSECtin (Homo sapiens), Q6UXB4 (protein)
# chain: MDTTRYSKWGGSSEEVPGGPWGRWVHWSRRPLFLALAVLVTTVLWAVILSILLSKASTERAALLDGHDLLRTNASKQTAALGALKEEVGDCHSCCSGTQAQLQTTRAELGEAQAKLMEQESALRELRERVTQGLAEAGRGREDVRTELFRALEAVRLQNNSCEPCPTSWLSFEGSCYFFSVPKTTWAAAQDHCADASAHLVIVGGLDEQGFLTRNTRGRGYWLGLRAVRHLGKVQGYQWVDGVSLSFSHWNQGEPNDAWGRENCVMMLHTGLWNDAPCDSEKDGWICEKRHNC
# What was measured:
# Experiment in all cases: glycan array binding signal (z-score within array); higher = stronger binding
# Conditions in all cases: glycan notation: IUPAC condensed, linker removed
# [1] = molecular target: Fuc(a1-2)Gal(b1-4)GlcNAc(b1-2)[Fuc(a1-2)Gal(b1-4)GlcNAc(b1-4)]Man(a1-3)[Fuc(a1-2)Gal(b1-4)GlcNAc(b1-2)Man(a1-6)]Man(b1-4)GlcNAc(b1-4)GlcNAc
# In short: (§1)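 Glycan array binding is given as a within-array Z-score, which can be read as non-binding when negative. The arrays, 3228 of them, came from the Consortium for Functional Glycomics database and were retained only where the protein sequence was available. Z-scores were averaged across arrays of the same protein sequence at different concentrations or buffers and across linkers.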
# [2] = molecular target: Fuc(a1-2)Gal(b1-4)GlcNAc(b1-3)Gal(b1-4)GlcNAc
# In short: as §1
# [3] = molecular target: Fuc(a1-2)Gal(b1-4)GlcNAc(b1-3)Gal(b1-4)GlcNAc(b1-2)Man(a1-3)[Fuc(a1-2)Gal(b1-4)GlcNAc(b1-3)Gal(b1-4)GlcNAc(b1-2)Man(a1-6)]Man(b1-4)GlcNAc(b1-4)GlcNAc
# In short: as §1
# [4] = molecular target: Fuc(a1-2)Gal(b1-4)GlcNAc(b1-3)Gal(b1-4)GlcNAc(b1-3)Gal(b1-4)GlcNAc
# In short: as §1
# [5] = molecular target: Fuc(a1-2)Gal(b1-4)GlcNAc(b1-3)GalNAc
# In short: as §1
# [6] = molecular target: Fuc(a1-2)Gal(b1-4)GlcNAc(b1-3)[Fuc(a1-2)Gal(b1-4)GlcNAc(b1-6)]GalNAc
# In short: as §1
# [7] = molecular target: Fuc(a1-2)Gal(b1-4)GlcNAc(b1-3)[Fuc(a1-3)[Gal(b1-4)]GlcNAc(b1-6)]Gal(b1-4)Glc
# In short: as §1
# [8] = molecular target: Fuc(a1-2)Gal(b1-4)GlcNAc(b1-6)GalNAc
# In short: as §1
# [9] = molecular target: Fuc(a1-2)Gal(b1-4)GlcNAc6S
# In short: as §1
# [10] = molecular target: Fuc(a1-2)Gal(b1-4)[Fuc(a1-3)]GlcNAc
# In short: as §1
# [11] = molecular target: Fuc(a1-2)Gal(b1-4)[Fuc(a1-3)]GlcNAc(b1-2)Man(a1-3)[Fuc(a1-2)Gal(b1-4)[Fuc(a1-3)]GlcNAc(b1-2)Man(a1-6)]Man(b1-4)GlcNAc(b1-4)GlcNAc
# In short: as §1
# [12] = molecular target: Fuc(a1-2)Gal(b1-4)[Fuc(a1-3)]GlcNAc(b1-2)Man(a1-3)[Fuc(a1-2)Gal(b1-4)[Fuc(a1-3)]GlcNAc(b1-2)Man(a1-6)]Man(b1-4)GlcNAc(b1-4)[Fuc(a1-6)]GlcNAc
# In short: as §1
# [13] = molecular target: Fuc(a1-2)Gal(b1-4)[Fuc(a1-3)]GlcNAc(b1-2)[Fuc(a1-2)Gal(b1-4)[Fuc(a1-3)]GlcNAc(b1-4)]Man(a1-3)[Fuc(a1-2)Gal(b1-4)[Fuc(a1-3)]GlcNAc(b1-2)Man(a1-6)]Man(b1-4)GlcNAc(b1-4)GlcNAc
# In short: as §1
# [14] = molecular target: Fuc(a1-2)Gal(b1-4)[Fuc(a1-3)]GlcNAc(b1-3)Gal(b1-4)[Fuc(a1-3)]GlcNAc
# In short: as §1
# [15] = molecular target: Fuc(a1-2)Gal(b1-4)[Fuc(a1-3)]GlcNAc(b1-3)Gal(b1-4)[Fuc(a1-3)]GlcNAc(b1-3)Gal(b1-4)[Fuc(a1-3)]GlcNAc
# In short: as §1
# [16] = molecular target: Fuc(a1-2)Gal(b1-4)[Fuc(a1-3)]GlcNAc(b1-3)GalNAc
# In short: as §1
# [17] = molecular target: Fuc(a1-2)Gal(b1-4)[Fuc(a1-3)]GlcNAc(b1-3)[Neu5Ac(a2-6)Gal(b1-4)GlcNAc(b1-6)]Gal(b1-4)Glc
# In short: as §1
# [18] = molecular target: Fuc(a1-2)Gal3S(b1-4)GlcNAc
# In short: as §1
# [19] = molecular target: Fuc(a1-2)Gal6S(b1-3)GlcNAc
# In short: as §1
# [20] = molecular target: Fuc(a1-2)Gal6S(b1-3)GlcNAc6S
# In short: as §1
# Fuc(a1-2)Gal6S(b1-4)Glc = molecular target: Fuc(a1-2)Gal6S(b1-4)Glc
# In short: as §1
# [21] = molecular target: Fuc(a1-2)Gal6S(b1-4)Glc6S
# In short: as §1
# [22] = molecular target: Fuc(a1-2)Gal6S(b1-4)GlcNAc
# In short: as §1
# Fuc(a1-2)[Gal(a1-3)]Gal = molecular target: Fuc(a1-2)[Gal(a1-3)]Gal
# In short: as §1
# [23] = molecular target: Fuc(a1-2)[Gal(a1-3)]Gal(b1-3)GalNAc
# In short: as §1
# [24] = molecular target: Fuc(a1-2)[Gal(a1-3)]Gal(b1-3)GalNAc(b1-3)Gal(a1-4)Gal(b1-4)Glc
# In short: as §1
# [25] = molecular target: Fuc(a1-2)[Gal(a1-3)]Gal(b1-3)GlcNAc
# In short: as §1
# [26] = molecular target: Fuc(a1-2)[Gal(a1-3)]Gal(b1-3)GlcNAc(b1-2)Man(a1-3)[Fuc(a1-2)[Gal(a1-3)]Gal(b1-3)GlcNAc(b1-2)Man(a1-6)]Man(b1-4)GlcNAc(b1-4)GlcNAc
# In short: as §1
# [27] = molecular target: Fuc(a1-2)[Gal(a1-3)]Gal(b1-3)GlcNAc(b1-2)Man(a1-3)[Fuc(a1-2)[Gal(a1-3)]Gal(b1-3)GlcNAc(b1-2)Man(a1-6)]Man(b1-4)GlcNAc(b1-4)[Fuc(a1-6)]GlcNAc
# In short: as §1
# [28] = molecular target: Fuc(a1-2)[Gal(a1-3)]Gal(b1-3)GlcNAc(b1-3)GalNAc
# In short: as §1
binder,measurement,setting,value
B1,glycan array binding signal (z-score),[1],-0.125
same,glycan array binding signal (z-score),[2],0.027
same,glycan array binding signal (z-score),[3],-0.113
same,glycan array binding signal (z-score),[4],-0.142
same,glycan array binding signal (z-score),[5],-0.139
same,glycan array binding signal (z-score),[6],-0.133
same,glycan array binding signal (z-score),[7],-0.135
same,glycan array binding signal (z-score),[8],-0.131
same,glycan array binding signal (z-score),[9],-0.204
same,glycan array binding signal (z-score),[10],-0.004
same,glycan array binding signal (z-score),[11],0.032
same,glycan array binding signal (z-score),[12],-0.119
same,glycan array binding signal (z-score),[13],-0.134
same,glycan array binding signal (z-score),[14],-0.184
same,glycan array binding signal (z-score),[15],-0.171
same,glycan array binding signal (z-score),[16],-0.135
same,glycan array binding signal (z-score),[17],-0.138
same,glycan array binding signal (z-score),[18],-0.137
same,glycan array binding signal (z-score),[19],-0.129
same,glycan array binding signal (z-score),[20],-0.132
same,glycan array binding signal (z-score),Fuc(a1-2)Gal6S(b1-4)Glc,0.371
same,glycan array binding signal (z-score),[21],-0.131
same,glycan array binding signal (z-score),[22],-0.097
same,glycan array binding signal (z-score),Fuc(a1-2)[Gal(a1-3)]Gal,-0.185
same,glycan array binding signal (z-score),[23],-0.131
same,glycan array binding signal (z-score),[24],-0.134
same,glycan array binding signal (z-score),[25],-0.157
same,glycan array binding signal (z-score),[26],0.449
same,glycan array binding signal (z-score),[27],-0.131
same,glycan array binding signal (z-score),[28],-0.129
